For the test, the target named is T1, human ROR1 extracellular domain-Fc fusion (human, UniProt Q01973 partial chain).
T1 construct: extracellular domain; also called hROR1; ROR1-hFc
Briefly: SPR, hROR1 ECD-Fc on chip.

As a reminder, the Kd is the free concentration of one partner at which half of the binding sites on the other are occupied at equilibrium, for simple one-to-one binding. Read a high Kd as weaker binding. By koff is commonly meant the first-order rate constant of dissociation. One may read the kon as a measure of how fast the partners come together.

B1: B1G1-hFc (Fc fusion, not shown: small tags and cut ends)
chain: TRVDQSPSSLSASVGDRVTITCVLTGANYGLASTYWYRKNPGSSNKEQISISGRYSESVNKGTKSFTLTISSLQPEDSATYYCRAYPWGAGAPWLVQWYDGAGTKVEIK[human IgG1 Fc with changes cut from this listing]
notes: construct not described beyond its name
Regarding B1, the Kd is 11.8 nM, the koff turned out to be 0.00266 s⁻¹ and the kon turned out to be 240000 M⁻¹ s⁻¹.

B2: B1G2-hFc (Fc fusion, not shown: small tags and cut ends)
chain: TRVDQSPSSLSASVGDRVTITCVLTGANYGLASTYWYRKNPGSSNQERISISGRYSESVNKRTMSFTLTISSLQPEDSATYYCRAYPWGAGAPWLVQWYDGAGTKVEIK[human IgG1 Fc with changes cut from this listing]
notes: as for B1
For B2, the Kd was found to be 2.55 nM, the koff worked out at 0.00141 s⁻¹ and the kon came to 626000 M⁻¹ s⁻¹.

The values are drawn from patent US20210317204A1 (ALMAC DISCOVERY, published 2021).
